Test results from PubChem BioAssay AID1347165 (National Center for Advancing Translational Sciences (NCATS), 2019).
Hit rate of the full screen: of about 220,000 compounds, about 5,700 (2.6%) were called active. Inconclusive results, whose numbers are uncertain, are shown with a selection of clear calls. The call rests on the fitted dose curve; in most records, active means well fitted inhibition curve with a large enough effect; inconclusive means small, poorly fitted or top-dose-only effect; inactive means no such curve, though single readings can be large or run the other way. Potencies of inconclusive entries are doubtful fits and often do not repeat.

biological target: Lysine-specific demethylase 5B (Homo sapiens) (UniProt Q9UGL1); assay: Primary screen for KDM5B Histone Demethylases FDH-coupled qHTS; settings: FDH-coupled NADH fluorescence (FDH is formaldehyde dehydrogenase); series mostly up to 57.7 µM; further: nearly all actives have a fitted effect of over 70% in size
Sequence of UniProt Q9UGL1 (Q9UGL1 whole entry, looked up): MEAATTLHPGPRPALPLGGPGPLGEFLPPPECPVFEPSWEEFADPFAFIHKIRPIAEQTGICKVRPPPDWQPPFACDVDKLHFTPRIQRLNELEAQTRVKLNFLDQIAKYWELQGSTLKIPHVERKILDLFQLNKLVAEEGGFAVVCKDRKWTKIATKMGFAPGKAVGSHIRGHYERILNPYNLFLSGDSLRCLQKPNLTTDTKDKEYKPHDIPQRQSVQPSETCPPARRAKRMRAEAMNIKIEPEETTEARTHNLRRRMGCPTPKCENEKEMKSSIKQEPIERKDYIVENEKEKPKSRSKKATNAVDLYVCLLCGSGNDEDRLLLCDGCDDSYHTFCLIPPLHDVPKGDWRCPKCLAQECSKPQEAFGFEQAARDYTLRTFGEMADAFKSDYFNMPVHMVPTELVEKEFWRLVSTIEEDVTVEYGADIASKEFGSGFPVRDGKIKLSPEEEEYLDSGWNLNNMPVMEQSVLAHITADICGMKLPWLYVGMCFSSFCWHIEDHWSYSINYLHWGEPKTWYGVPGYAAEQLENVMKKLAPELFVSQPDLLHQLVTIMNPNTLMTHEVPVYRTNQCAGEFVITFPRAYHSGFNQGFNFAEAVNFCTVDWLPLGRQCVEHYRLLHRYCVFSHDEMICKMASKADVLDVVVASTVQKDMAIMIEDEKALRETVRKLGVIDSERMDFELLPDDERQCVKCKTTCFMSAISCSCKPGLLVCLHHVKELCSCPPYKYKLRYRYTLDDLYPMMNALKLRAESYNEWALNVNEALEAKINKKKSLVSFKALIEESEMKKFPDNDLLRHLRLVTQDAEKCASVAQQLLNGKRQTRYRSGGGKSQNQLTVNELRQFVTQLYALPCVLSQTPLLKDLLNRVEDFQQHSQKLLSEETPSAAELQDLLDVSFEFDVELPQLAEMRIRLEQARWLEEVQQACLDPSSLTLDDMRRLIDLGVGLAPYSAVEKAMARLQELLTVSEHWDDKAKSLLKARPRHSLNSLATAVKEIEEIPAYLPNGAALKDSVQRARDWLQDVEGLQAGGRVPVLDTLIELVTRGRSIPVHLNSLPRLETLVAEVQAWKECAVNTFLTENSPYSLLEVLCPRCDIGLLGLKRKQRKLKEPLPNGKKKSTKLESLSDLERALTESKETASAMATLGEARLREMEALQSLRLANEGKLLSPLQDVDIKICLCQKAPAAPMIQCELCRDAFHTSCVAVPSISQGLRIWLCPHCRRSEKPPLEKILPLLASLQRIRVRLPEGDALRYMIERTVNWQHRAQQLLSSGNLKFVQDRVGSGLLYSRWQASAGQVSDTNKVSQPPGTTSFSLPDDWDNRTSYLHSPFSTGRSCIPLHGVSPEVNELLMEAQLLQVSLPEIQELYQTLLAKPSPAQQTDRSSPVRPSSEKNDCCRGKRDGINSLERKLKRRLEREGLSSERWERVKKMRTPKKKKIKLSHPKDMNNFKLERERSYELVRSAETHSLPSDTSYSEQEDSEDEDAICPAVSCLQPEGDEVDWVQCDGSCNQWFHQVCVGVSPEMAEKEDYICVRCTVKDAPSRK
In short: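 KDM5BΔAP (200 nM final) in 50 mM HEPES pH 7.5, 0.01% Tween-20 was preincubated 10 min at RT with compound over a concentration range. Substrate mix (H3K4me3 12.5 µM, α-KG 25 µM, Fe²⁺, ascorbate, NAD⁺, FDH) was added, and NADH fluorescence change over 30 min gave dose-response curves.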
Potency means the concentration at half of the fitted maximal effect; tags describe the fitted curve by direction and shape.

SMILES	Potency
Cc1cc(C)c(NC(=O)Cn2cccc2-c2nc(-c3ccc4c(c3)OCO4)no2)c(C)c1	inconclusive: 25.1 µM [inhibitor, partial curve]
Cc1ccc(-n2ncc(C(=O)N3CCc4ccccc4C3)c2C2CCN(C(=O)OC(C)(C)C)CC2)cc1C	inactive
Cc1noc(C)c1[S+](=O)([O-])N1CCC2(CC1)C(=NC1CCCCC1)NC(=O)N2c1cccnc1	inconclusive: 28.2 µM [inhibitor, single point]
COc1ccc(-c2nc(Nc3cc(F)ccc3F)c3ccccc3n2)cc1	inconclusive: 2.51 µM [inhibitor, full curve, poor fit]
Cc1cc(C(=O)NC(C)c2cccc(C(F)(F)F)c2)c(C)o1 (stereo unspecified)	inconclusive: 31.6 µM [inhibitor, partial curve, poor fit]
CC(Nc1nccc(C(F)(F)F)n1)c1cccc([N+](=O)[O-])c1 (stereo unspecified)	inconclusive: 17.8 µM [inhibitor, partial curve, poor fit]
CCc1cccc2c(C(CC(=O)NC(C)CC)c3ccc(OC)c(OC)c3)c[nH]c12 (stereo unspecified)	inconclusive: 31.6 µM [inhibitor, partial curve, poor fit]
Fc1cccc(Cl)c1CSc1ccc(-c2ccccn2)nn1	inconclusive: 39.8 µM [inhibitor, single point]
O=C1CC(N2CCC(c3nc4ccccc4o3)CC2)C(=O)N1c1cc(Cl)cc(Cl)c1 (stereo unspecified)	inconclusive: 39.8 µM [inhibitor, single point]
COc1ccc(-c2cc(C(=O)NCc3cccnc3)c3c(c2)N(C)CCO3)cc1OC	inconclusive: 25.1 µM [inhibitor, partial curve, poor fit]
CNC(=O)c1ccc(NC(=O)c2nsc3ccccc23)cc1	inactive
Cc1ccc(-c2csc(=Nc3ccccc3)n2CCCO)cc1	inconclusive: 35.5 µM [inhibitor, single point]
OCC1(CNCc2cccnc2)C[C@@H](O)[C@@H](O)C1 (stereo partly specified)	inconclusive: 35.5 µM [inhibitor, partial curve, poor fit]
CC(C)C(=O)N[C@H]1[C@H](O)[C@H](O)C[C@@H]1c1ccc(N2CCOCC2)nc1	active: 39.8 µM
COc1ccc2c(c1)c(N1CCCC1=O)c(C(=O)Nc1ccc(Cl)cc1C)n2C	inconclusive: 28.2 µM [inhibitor, partial curve, poor fit]
CC(Sc1n[nH]c(=O)n1CCc1ccccc1)C(=O)c1cccc(Cl)c1 (stereo unspecified)	inactive
COc1cc(-c2nc3ccccc3s2)ccc1OC(C)C	inconclusive: 25.1 µM [inhibitor, partial curve, poor fit]
COc1ccccc1/C=C/c1nc(C#N)c(NCCCn2ccnc2)o1	inconclusive: 28.2 µM [inhibitor, partial curve, poor fit]
CCCCNC(=O)c1ccc(-c2nc(CS(=O)(=O)c3ccc(C)cc3)c(C)o2)cc1	inconclusive: 3.55 µM [inhibitor, partial curve, poor fit]
CCC(CC)C(=O)Nc1ccc([C@@H](O)[C@H]2COCC(=O)N2CC)cc1	inactive
COC(=O)CNC(c1ccccc1)c1cc(Br)ccc1NC(=O)c1cc(OC)c(OC)c(OC)c1 (stereo unspecified)	inconclusive: 39.8 µM [inhibitor, single point]

SMILES	Potency
Cc1ccc(NC(=O)C2=C(c3ccccc3)NC(=S)NC2c2ccc(Cl)cc2)cc1 (stereo unspecified)	inconclusive: 39.8 µM [inhibitor, partial curve, poor fit]
COCc1cccc(-c2ccc3c(n2)c(=O)ncn3Cc2ccccc2)c1	inconclusive: 31.6 µM [inhibitor, partial curve, poor fit]
COC(=O)c1cccn(C)c1=S	inactive
CN1CCC(N2CC[C@@H]3[C@H]2C(=O)NC[C@H](CCC(=O)N2CCOCC2)N3C)CC1	inconclusive: 50.1 µM [inhibitor, partial curve, poor fit]
Fc1ccc(-n2ncc3c(Nc4ccc(Oc5ccc(Cl)cc5)cc4)ncnc32)cc1	inconclusive: 28.2 µM [inhibitor, partial curve, poor fit]
CC(=O)N1CCCC2(C1)Nc1cccnc1NC2=NCc1ccccc1 (stereo unspecified)	inconclusive: 28.2 µM [inhibitor, partial curve, poor fit]
c1cnc2c(N3CCOCC3)nc(N3CCOCC3)nc2n1	inactive
O=C(c1ccc2c(c1)OCO2)N1CCn2c(nnc2C2CCNCC2)C1	inconclusive: 50.1 µM [inhibitor, partial curve]
O=C(c1ccc2c(c1)OCO2)N1CC(c2noc(C3CCCN3CC3CC3)n2)C1 (stereo unspecified)	inconclusive: 17.8 µM [inhibitor, partial curve]
CCOc1cccc(-c2cc(C(=O)O)c3ccc(C)c(C)c3n2)c1	inconclusive: 39.8 µM [inhibitor, single point]
COc1ccc(C(=O)N2CCCN(c3nc4ncccc4o3)CC2)cc1	inactive
CCC[C@@H]1CN(C(=O)c2ccc(-c3ccc(C)o3)cc2)C[C@H]1NC(C)=O	active: 28.2 µM
Cc1cc(O)c(C)c(C)c1O	inactive
O=C(NCC1CCN(Cc2ccccn2)C1)Nc1ccccc1Cl (stereo unspecified)	inconclusive: 3.98 µM [inhibitor, partial curve, poor fit]
CCC(C)c1ccc(OCC(=O)Nc2cccc(C(=O)Nc3ccc(C(=O)O)cc3)c2)cc1 (stereo unspecified)	inconclusive: 39.8 µM [inhibitor, single point]
CCOc1ccc(Nc2c(S(=O)(=O)c3ccc(C)cc3)cnc3ccccc23)cc1	inconclusive: 15.8 µM [inhibitor, partial curve, poor fit]
CCc1ccc(C(=O)c2sc(Nc3cccc(Cl)c3)nc2N)cc1	inactive
COc1ccc(-c2cc3c(=O)n(CCNC(=O)c4ccccc4C)ccn3n2)cc1	active: 20 µM
CC1=C[C@@H](CN2CCC(O)CC2)[C@H](C(C)C)C[C@H]1Cc1nnc(C(C)(C)C)o1	inconclusive: 25.1 µM [inhibitor, partial curve]
O=C(Nc1nc(-c2ccc(Cl)s2)cs1)c1ccccc1F	inconclusive: 25.1 µM [inhibitor, single point]
